# Experimental data published in the supplement of paper PMC8728848.
# This is one part of the list.
# B1: LICBM33A (Lactococcus lactis), Q9CE94 (protein)
# chain: MKKLLTGLLVAAGLLSVSLLIKTDTVSAHGYVQSPPARGYQGQLDSQSLGWTAAFNIYGNVISNPQSLEAPKGFPECGPADGRIASANGGLGQIGDFVLDNQTSSRWKKTSISTGSNIFTWKYTAPHKTTKWHYYMTKTGWDQNAPLKHSELELIGTINHDGSPATNNLSHTINIPTDRSGYHIVLAVWDVADTSNAFYNVIDINVNNKNASSQVFGPFL
# Tests used:
# Experiment in all cases: glycan array binding signal (z-score within array); higher = stronger binding
# Settings in all cases: glycan notation: IUPAC condensed, linker removed
# [1] = molecular target: Neu5Ac(a2-6)Gal(b1-4)GlcNAc(b1-3)Gal(b1-4)GlcNAc(b1-3)Gal(b1-4)GlcNAc
# How it was run: (§1)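 Glycan array data came from 3228 arrays in the Consortium for Functional Glycomics database, and only arrays with an available protein sequence were kept. Glycan names were put into IUPAC-condensed notation, and columns mapping to the same glycan were averaged. The binding signal is a within-array Z-score, averaged across arrays of one protein sequence run at different concentrations or buffers and across linkers. A negative Z-score can be read as non-binding.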
# [2] = molecular target: Neu5Ac(a2-6)Gal(b1-4)GlcNAc(b1-3)Gal(b1-4)GlcNAc(b1-3)Gal(b1-4)GlcNAc(b1-2)Man(a1-3)[Neu5Ac(a2-6)Gal(b1-4)GlcNAc(b1-3)Gal(b1-4)GlcNAc(b1-3)Gal(b1-4)GlcNAc(b1-2)Man(a1-6)]GalNAc
# How it was run: as §1
# [3] = molecular target: Neu5Ac(a2-6)Gal(b1-4)GlcNAc(b1-3)Gal(b1-4)GlcNAc(b1-3)GalNAc
# How it was run: as §1
# [4] = molecular target: Neu5Ac(a2-6)Gal(b1-4)GlcNAc(b1-3)Gal(b1-4)GlcNAc(b1-3)[Neu5Ac(a2-6)Gal(b1-4)GlcNAc(b1-3)Gal(b1-4)GlcNAc(b1-6)]GalNAc
# How it was run: as §1
# [5] = molecular target: Neu5Ac(a2-6)Gal(b1-4)GlcNAc(b1-3)Gal(b1-4)GlcNAc(b1-6)[Gal(b1-3)]GalNAc
# How it was run: as §1
# [6] = molecular target: Neu5Ac(a2-6)Gal(b1-4)GlcNAc(b1-3)Gal(b1-4)[Fuc(a1-3)]GlcNAc(b1-3)Gal(b1-4)[Fuc(a1-3)]GlcNAc
# How it was run: as §1
# [7] = molecular target: Neu5Ac(a2-6)Gal(b1-4)GlcNAc(b1-3)GalNAc
# How it was run: as §1
# [8] = molecular target: Neu5Ac(a2-6)Gal(b1-4)GlcNAc(b1-3)[Neu5Ac(a2-6)Gal(b1-4)GlcNAc(b1-6)]GalNAc
# How it was run: as §1
# [9] = molecular target: Neu5Ac(a2-6)Gal(b1-4)GlcNAc(b1-6)GalNAc
# How it was run: as §1
# [10] = molecular target: Neu5Ac(a2-6)Gal(b1-4)GlcNAc(b1-6)[Gal(b1-3)GlcNAc(b1-3)]Gal(b1-4)Glc
# How it was run: as §1
# [11] = molecular target: Neu5Ac(a2-6)Gal(b1-4)GlcNAc(b1-6)[Gal(b1-3)]GalNAc
# How it was run: as §1
# [12] = molecular target: Neu5Ac(a2-6)Gal(b1-4)GlcNAc6S
# How it was run: as §1
# Neu5Ac(a2-6)GalNAc = molecular target: Neu5Ac(a2-6)GalNAc
# How it was run: as §1
# [13] = molecular target: Neu5Ac(a2-6)GalNAc(b1-4)GlcNAc
# How it was run: as §1
# [14] = molecular target: Neu5Ac(a2-6)GalNAc(b1-4)GlcNAc6S
# How it was run: as §1
# [15] = molecular target: Neu5Ac(a2-6)GlcNAc(b1-4)GlcNAc
# How it was run: as §1
# [16] = molecular target: Neu5Ac(a2-6)GlcNAc(b1-4)GlcNAc(b1-4)GlcNAc
# How it was run: as §1
# Neu5Ac(a2-8)Neu5Ac = molecular target: Neu5Ac(a2-8)Neu5Ac
# How it was run: as §1
# [17] = molecular target: Neu5Ac(a2-8)Neu5Ac(a2-3)Gal(b1-3)GalNAc(b1-4)[Neu5Ac(a2-3)]Gal(b1-4)Glc
# How it was run: as §1
# [18] = molecular target: Neu5Ac(a2-8)Neu5Ac(a2-3)Gal(b1-3)GalNAc(b1-4)[Neu5Ac(a2-8)Neu5Ac(a2-3)]Gal(b1-4)Glc
# How it was run: as §1
# [19] = molecular target: Neu5Ac(a2-8)Neu5Ac(a2-3)Gal(b1-4)Glc
# How it was run: as §1
# [20] = molecular target: Neu5Ac(a2-8)Neu5Ac(a2-3)Gal(b1-4)GlcNAc
# How it was run: as §1
# [21] = molecular target: Neu5Ac(a2-8)Neu5Ac(a2-3)[Gal(b1-3)GalNAc(b1-4)]Gal(b1-4)Glc
# How it was run: as §1
# [22] = molecular target: Neu5Ac(a2-8)Neu5Ac(a2-3)[GalNAc(b1-4)]Gal(b1-4)Glc
# How it was run: as §1
# [23] = molecular target: Neu5Ac(a2-8)Neu5Ac(a2-8)Neu5Ac
# How it was run: as §1
# [24] = molecular target: Neu5Ac(a2-8)Neu5Ac(a2-8)Neu5Ac(a2-3)Gal(b1-4)Glc
# How it was run: as §1
# [25] = molecular target: Neu5Ac(a2-8)Neu5Ac(a2-8)Neu5Ac(a2-3)[Gal(b1-3)GalNAc(b1-4)]Gal(b1-4)Glc
# How it was run: as §1
# [26] = molecular target: Neu5Ac(a2-8)Neu5Ac(a2-8)Neu5Ac(a2-3)[GalNAc(b1-4)]Gal(b1-4)Glc
# How it was run: as §1
# [27] = molecular target: Neu5Ac(a2-8)Neu5Ac(a2-8)Neu5Ac(a2-8)Neu5Ac(a2-3)[GalNAc(b1-4)]Gal(b1-4)Glc
# How it was run: as §1
# [28] = molecular target: Neu5Ac(a2-8)Neu5Gc(a2-3)Gal(b1-4)GlcNAc
# How it was run: as §1
# [29] = molecular target: Neu5Ac(b2-6)Gal(b1-4)GlcNAc
# How it was run: as §1
# Neu5Ac(b2-6)GalNAc = molecular target: Neu5Ac(b2-6)GalNAc
# How it was run: as §1
# [30] = molecular target: Neu5Ac9Ac(a2-3)Gal(b1-3)GlcNAc
# How it was run: as §1
# [31] = molecular target: Neu5Ac9Ac(a2-3)Gal(b1-4)GlcNAc
# How it was run: as §1
# [32] = molecular target: Neu5Ac9Ac(a2-6)Gal(b1-4)GlcNAc
# How it was run: as §1
# [33] = molecular target: Neu5Gc(a2-3)Gal(b1-3)GlcNAc
# How it was run: as §1
# [34] = molecular target: Neu5Gc(a2-3)Gal(b1-3)[Fuc(a1-4)]GlcNAc
# How it was run: as §1
# Neu5Gc(a2-3)Gal(b1-4)Glc = molecular target: Neu5Gc(a2-3)Gal(b1-4)Glc
# How it was run: as §1
# [35] = molecular target: Neu5Gc(a2-3)Gal(b1-4)GlcNAc
# How it was run: as §1
# [36] = molecular target: Neu5Gc(a2-3)Gal(b1-4)GlcNAc(b1-3)Gal(b1-4)GlcNAc(b1-2)Man(a1-3)[Neu5Gc(a2-3)Gal(b1-4)GlcNAc(b1-3)Gal(b1-4)GlcNAc(b1-2)Man(a1-6)]Man(b1-4)GlcNAc(b1-4)GlcNAc
# How it was run: as §1
# [37] = molecular target: Neu5Gc(a2-3)Gal(b1-4)[Fuc(a1-3)]GlcNAc
# How it was run: as §1
# [38] = molecular target: Neu5Gc(a2-6)Gal(b1-4)GlcNAc
# How it was run: as §1
# Neu5Gc(a2-6)GalNAc = molecular target: Neu5Gc(a2-6)GalNAc
# How it was run: as §1
# [39] = molecular target: Neu5Gc(a2-8)Neu5Ac(a2-3)Gal(b1-4)GlcNAc
# How it was run: as §1
# [40] = molecular target: Neu5Gc(a2-8)Neu5Gc(a2-3)Gal(b1-4)GlcNAc
# How it was run: as §1
binder,measurement,setting,value
B1,glycan array binding signal (z-score),[1],-0.044
same,glycan array binding signal (z-score),[2],3.16
same,glycan array binding signal (z-score),[3],-0.872
same,glycan array binding signal (z-score),[4],-0.33
same,glycan array binding signal (z-score),[5],-0.512
same,glycan array binding signal (z-score),[6],-0.447
same,glycan array binding signal (z-score),[7],-0.023
same,glycan array binding signal (z-score),[8],-0.873
same,glycan array binding signal (z-score),[9],-0.073
same,glycan array binding signal (z-score),[10],0.003
same,glycan array binding signal (z-score),[11],1.8
same,glycan array binding signal (z-score),[12],0.165
same,glycan array binding signal (z-score),Neu5Ac(a2-6)GalNAc,-0.419
same,glycan array binding signal (z-score),[13],1.07
same,glycan array binding signal (z-score),[14],-0.146
same,glycan array binding signal (z-score),[15],-1
same,glycan array binding signal (z-score),[16],-0.55
same,glycan array binding signal (z-score),Neu5Ac(a2-8)Neu5Ac,0.194
same,glycan array binding signal (z-score),[17],0.779
same,glycan array binding signal (z-score),[18],-0.425
same,glycan array binding signal (z-score),[19],-0.459
same,glycan array binding signal (z-score),[20],-0.182
same,glycan array binding signal (z-score),[21],-0.26
same,glycan array binding signal (z-score),[22],-0.725
same,glycan array binding signal (z-score),[23],-0.117
same,glycan array binding signal (z-score),[24],-1
same,glycan array binding signal (z-score),[25],1.2
same,glycan array binding signal (z-score),[26],-0.472
same,glycan array binding signal (z-score),[27],-0.294
same,glycan array binding signal (z-score),[28],0.463
same,glycan array binding signal (z-score),[29],-0.427
same,glycan array binding signal (z-score),Neu5Ac(b2-6)GalNAc,-0.575
same,glycan array binding signal (z-score),[30],0.017
same,glycan array binding signal (z-score),[31],0.072
same,glycan array binding signal (z-score),[32],-0.166
same,glycan array binding signal (z-score),[33],0.297
same,glycan array binding signal (z-score),[34],-0.321
same,glycan array binding signal (z-score),Neu5Gc(a2-3)Gal(b1-4)Glc,-0.747
same,glycan array binding signal (z-score),[35],-0.141
same,glycan array binding signal (z-score),[36],0.898
same,glycan array binding signal (z-score),[37],0.224
same,glycan array binding signal (z-score),[38],-0.606
same,glycan array binding signal (z-score),Neu5Gc(a2-6)GalNAc,0.897
same,glycan array binding signal (z-score),[39],-0.276
same,glycan array binding signal (z-score),[40],0.032
